{
  "source": "patent US9993534B2",
  "about": "“Method of treating fungal infection” (Wisconsin Alumni Research Foundation, priority 2013, dated 2018)",
  "key": {"[1]": {"tested_on": "1807 T cells", "assay": "Stimulation of 1807 T cells in vitro (BMDC co-culture; IFN-γ ELISA, activation markers by flow cytometry)", "settings": "for activation of 1807 T cells: in vitro, BMDC co-culture three days, flow cytometry (reduced CD62L, increased CD44)", "excerpt": "Eluate #1 was applied to a Gel-free 8100 fractionation system (Protein Discovery, Knoxville, Tenn.), and separated on a 10% Tris-Acetate cartridge. Fractions were collected that corresponded to separately eluted MW markers. These fractions were surveyed for protein content by PAGE analysis and silver stain.\nTo test the antigenic properties of the Calnexin protein and peptides we loaded bone marrow derived dendritic cells (BMDC) with the respective antigens and cultured them with naïve 1807 T cells to assess T-cell activation and cytokine production. After three days of co-culture, the cell culture supernatants were harvested and analyzed for cytokines by ELISA and 1807 T cells stained for the activation markers CD44 and CD62L (Wuthrich, Ersland, et al., 2012). In some experiments, the Blastomyces CW/M-reactive T-cell clone #5, whose TCR was cloned to generate 1807 transgenic mice (Wuthrich, Filutowicz, et al., 2007), was used as a reporter T-cell to identify the presence of the antigen. Cell-culture supernatants were generated in 96-well plates in 0.2 ml containing 1×10^5 BMDC, 0.05 to 10 μg/ml of CW/M antigen (Wuthrich, Filutowicz, et al., 2000), 0.05 to 50 μg/ml Calnexin and Drk1 (as a negative control) (Nemecek, Wuthrich, et al., 2006) and 0.001 to 100 μM Calnexin peptides #1-10 (FIG. 6). Supernatants were collected after 72 hours of co-culture. IFN-γ and IL-17A were measured by ELISA (R&D System, Minneapolis, Minn.) according to manufacturer specifications (detection limits were 0.05 ng/ml)."}, "[2]": {"tested_on": "1807 cells", "assay": "In vivo activation and proliferation of adoptively transferred 1807 cells after vaccination", "excerpt": "To assess the T helper cytokine phenotype of Calnexin-specific CD4^+ T cells after vaccination with Calnexin and various adjuvants, we transferred 10^6 naïve 1807 Tg cells into C57BL/6 wild-type mice before vaccination. On the same day, recipients were vaccinated, boosted two weeks later and challenged two weeks after the boost.\nTo investigate whether rCalnexin induces activation and proliferation of 1807 cells in vivo, we adoptively transferred 1807 Tg T cells into naïve wild-type recipient mice prior to vaccination."}},
  "data": [
    {"sequence": "LVVKNPAAHHAIS [Peptide 1]", "values": [
      {"measurement": "IFN-γ production by 1807 T cells", "setting": "[1]; co-culture with antigen-loaded BMDC, supernatant after 72 hours, ELISA", "result": "stimulated the production of IFN-γ by 1807 cells in a dose dependent manner"},
      {"measurement": "activation of 1807 T cells", "setting": "[1]", "result": "strongly activated"},
      {"measurement": "activation of 1807 T cells", "setting": "[1]; listed as Calnexin peptide 1", "result": "In vitro activation of 1807 T cells"},
      {"measurement": "in vivo activation and proliferation of 1807 cells", "setting": "[2]", "result": "In vivo activation of 1807 T cells"}
    ]}
  ]
}
